Results published in PMC4336329 (PLoS ONE, 2015).
About 2,200 (0.71%) of roughly 310,000 compounds showed an effect of 50% or more. The effect is printed as a negative number. Some of the results follow.

These compounds were tested against human ether-à-go-go-related gene (hERG) potassium channel (human, UniProt Q12809) (assay: primary screen, population patch clamp on CHO cells stably expressing hERG).
human ether-à-go-go-related gene (hERG) potassium channel, sequence (Q12809 whole entry, looked up): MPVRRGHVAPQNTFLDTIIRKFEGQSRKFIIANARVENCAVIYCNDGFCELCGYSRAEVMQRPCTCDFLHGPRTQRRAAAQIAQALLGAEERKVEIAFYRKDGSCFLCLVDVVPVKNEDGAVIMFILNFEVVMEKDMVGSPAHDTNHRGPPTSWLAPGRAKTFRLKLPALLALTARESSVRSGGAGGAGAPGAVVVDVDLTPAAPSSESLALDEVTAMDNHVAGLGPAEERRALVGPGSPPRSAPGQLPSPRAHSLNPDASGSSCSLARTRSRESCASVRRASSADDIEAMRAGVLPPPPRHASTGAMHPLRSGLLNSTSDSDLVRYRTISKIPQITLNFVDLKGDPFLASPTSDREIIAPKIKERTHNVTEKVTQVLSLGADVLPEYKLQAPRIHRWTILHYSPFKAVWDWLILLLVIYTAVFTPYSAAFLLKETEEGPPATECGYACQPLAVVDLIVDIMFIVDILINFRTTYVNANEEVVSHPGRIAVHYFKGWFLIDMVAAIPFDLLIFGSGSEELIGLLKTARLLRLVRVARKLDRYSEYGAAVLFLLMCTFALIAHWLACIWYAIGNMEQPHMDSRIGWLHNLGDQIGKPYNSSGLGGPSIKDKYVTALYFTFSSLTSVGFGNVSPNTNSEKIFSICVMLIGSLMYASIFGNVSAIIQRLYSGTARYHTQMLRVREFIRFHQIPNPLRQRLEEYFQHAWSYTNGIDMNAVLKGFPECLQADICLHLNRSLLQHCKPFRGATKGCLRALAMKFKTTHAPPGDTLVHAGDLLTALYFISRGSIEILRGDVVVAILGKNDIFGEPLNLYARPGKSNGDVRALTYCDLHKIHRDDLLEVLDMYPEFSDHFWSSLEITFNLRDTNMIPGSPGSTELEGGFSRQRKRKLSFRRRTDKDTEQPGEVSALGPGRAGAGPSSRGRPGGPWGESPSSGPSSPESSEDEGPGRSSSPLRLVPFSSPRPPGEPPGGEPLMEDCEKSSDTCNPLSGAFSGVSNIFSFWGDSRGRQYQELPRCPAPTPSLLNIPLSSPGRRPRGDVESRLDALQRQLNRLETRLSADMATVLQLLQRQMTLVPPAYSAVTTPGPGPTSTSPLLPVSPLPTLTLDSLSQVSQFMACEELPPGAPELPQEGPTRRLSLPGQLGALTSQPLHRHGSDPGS

Structure (SMILES) | hERG current change (%, negative = inhibition) at 1uM
O=c1ccc(/C=C/c2ccccc2)nn1Cc1ccc(F)cc1 | 4.97%
C=CCN1C(=O)/C(=C2/Sc3ccccc3N2C)SC1=Nc1ccccc1C | 14.5%
O=C(NCc1ccccn1)c1cc(S(=O)(=O)N2CCN(c3ccccc3)CC2)ccc1Cl | -8.41%
CCOC(=O)C1CCN(c2c(NCCCN3CCCCC3)c(=O)c2=O)CC1 | 12.9%
CC(=O)c1c(-c2ccc(Cl)cc2)c2ccccc2[nH]c1=O | 12.6%
CCN(CC(=O)Nc1ccc2c(c1)OCCO2)C(=O)c1ccc(C(F)(F)F)cc1 | 13.9%
O=C(COC(=O)c1ccc(S(=O)(=O)Nc2ccccc2)cc1)NC1CCCC1 | 17.7%
Cc1ccccc1NC(=O)Nc1cccs1 | 13.4%
COc1ccc(C(=O)NNC2=C(C(=O)C(F)(F)F)CCC2)cc1 | 14.7%
COc1ccc(N(C(=O)c2ccc(C)cc2)S(=O)(=O)c2cccs2)cc1 | 16.3%
O=C(COC(=O)c1ccccc1NCCO)Nc1cccc(S(=O)(=O)NC2=NCCCCC2)c1 | 4.76%
COc1ccc(NC(=O)c2ccccn2)cc1 | 6.69%
CSc1cccc(NS(=O)(=O)c2ccc3c(c2)oc(=O)n3C)c1 | 7.3%
CCOC(=O)CC(=O)CSc1nc2c(c(C)c1C#N)CCC2 | 1.35%
COC(=O)C1N[C@@H]([C@@H](NC(=O)COc2ccccc2)C(=O)NC2CC2)SC1(C)C (stereo partly drawn) | 9.01%
COc1ccc(N(CC(=O)Nc2ccc(Cc3ccncc3)cc2)S(=O)(=O)c2ccccc2)cc1 | 11.2%
Cc1cccc(NC(=O)Cn2nnc(-c3cccs3)n2)c1C | 7.96%
COc1cc(C)nc(OCCNC(=O)COc2ccc(Cl)cc2Cl)n1 | 6.51%
Cc1ccc(C)c(NC(=S)N(Cc2ccc(Cl)cc2)Cc2ccc(C(=O)O)cc2)c1 | 14.9%
CCOc1ccccc1-n1c(SCC(=O)N2CCOCC2)nnc1-c1ccccn1 | 6.84%
CCOc1ccc(N2C(=O)CSC2c2ccncc2)cc1 (stereo not drawn) | 17.5%
CCOC(=O)N1CCN(C(=O)c2cn(C)c3ccc(S(=O)(=O)N(CC)CC)cc3c2=O)CC1 | 17.4%

Structure (SMILES) | hERG current change (%, negative = inhibition) at 1uM
COc1ccc(OC)c2sc(NC(=O)c3ccc(Br)s3)nc12 | 16.2%
COC(=O)C1=C(N)Oc2c(oc(CO)cc2=O)C1c1ccc(F)cc1 (stereo not drawn) | 6.28%
O=C(O)/C=C/c1ccc(S(=O)(=O)Nc2ccc(OCc3ccccc3)cc2)cc1 | 17.6%
Cc1onc(-c2ccccc2)c1C(=O)N1CCN(Cc2ccc3c(c2)OCO3)CC1.Cl | 13.5%
COc1ccc(OC)c(Nc2c3ccccc3nc3ccccc23)c1 | 5.25%
O=C(CN1/C(=C(/O)c2ccccc2)C(=O)c2ccccc2S1(=O)=O)c1ccccc1 | 9.7%
COc1cccc2cc3c(=O)n(-c4ccccc4)nc-3oc12 | 8.78%
Cc1cccc(NC(=O)c2cc3ccccc3oc2=O)c1 | 13%
COc1ccc(CC(=O)NNC(=O)c2ccco2)cc1OC | 12.4%
COc1ccc(NC(=O)/C(C#N)=C/c2c(C)nn(-c3ccc(F)cc3)c2Cl)cc1Cl | 6.95%
Cc1ccccc1C1NC(=O)Cc2ccccc21 (stereo not drawn) | 13.3%
CCc1cc(Cn2nc(-c3ccccc3)cc2C(=O)NCc2ccc(C)cc2)on1 | 8.29%
CC1CN(c2cnn(C(C)C)c(=O)c2Cl)CC(C)O1 (stereo not drawn) | 2%
N#C/C(=C\c1c(N2CCOCC2)nc2ccccn2c1=O)C(=O)NC1CCS(=O)(=O)C1 (stereo not drawn) | -1.57%
COc1ccc2[nH]c(C)c(C(=O)CN3CCc4cc(OC)c(OC)cc4C3)c2c1 | -3.19%
O=C(NCC1CCN(Cc2ccccc2F)CC1)Nc1ccccc1F | -3.45%
Cl.O=S(=O)(c1cccc2cnccc12)N1CCNCC1 | 15.5%
Cc1cc(N2CCCCCC2)nc2ccccc12.O=C(O)C(=O)O | -23.3%
CCc1ccc(CCC(=O)Nc2nnc(C)s2)o1 | 2.72%
O=C(CSCc1ccccc1F)NCc1ccc(F)cc1 | 9.67%
CCOc1ccc(NC(=O)c2sc(NC(C)=O)c(C(=O)OC)c2C)cc1 | 18.2%
CCCn1c(=O)c(Cc2ccccc2)c(O)c2ccccc21 | 0.875%

Structure (SMILES) | hERG current change (%, negative = inhibition) at 1uM
Cc1cc(/C=C2/C(=N)N3C(=NC2=O)SN=C3S(C)(=O)=O)c(C)n1-c1ccccc1F | 13.5%
Cc1cc(C)c2c(n1)sc1c(N3CCN(C)CC3)ncnc12 | 0.322%
O=C(CS(=O)(=O)c1cn(Cc2ccccc2Cl)c2ccccc12)N1CCOCC1 | 8.16%
CCOC(=O)N1CCN(C(=O)CN(c2ccccc2OC)S(=O)(=O)c2ccc(OC)cc2)CC1 | 3.6%
Cc1ccnc(NS(=O)(=O)c2ccc(NC(=O)c3ccc(S(=O)(=O)N4CCOCC4)cc3)cc2)n1 | 10.8%
COc1ccc([C@H]2CC(=O)C=C(c3ccccc3-c3ccccc3)C2)cc1 | 8.44%
COCCCNCCCOc1ccc(C)cc1Br.O=C(O)C(=O)O | -3.31%
Cc1cccc(NC(=O)c2c(O)c3ccccc3n(C)c2=O)c1 | 19.3%
O=C1Nc2ccc(Br)cc2C12OCCO2 | 12.5%
O=C(O)CCc1ccc(-c2cccs2)n1Cc1ccco1 | -11.3%
COC(=O)C1=C(C(=O)c2ccccc2)C(c2ccc(OC)c(OC)c2)Nc2nnnn21 (stereo not drawn) | 10.3%
C/C(CC(=O)Nc1ccc(N(C)C)cc1)=N\NC(=O)c1ccncc1 | 9.61%
Cc1csc(NC(=O)c2cc3c(s2)-c2ccccc2OC3)n1 | 7.79%
CC(=NCc1cccnc1)c1c(O)n(-c2ccccc2)c(=O)[nH]c1=O | 17.9%
C=CCNc1nnc(SC2CC(=O)N(c3ccc(OCCC)cc3)C2=O)s1 (stereo not drawn) | 8.05%
Cn1cc(S(=O)(=O)N2CCOCC2)cc1C(=O)Nc1cccc(Cl)c1 | 3.77%
O=C(NCc1ccco1)c1nc2c(nnn2Cc2ccccc2Cl)c(=O)[nH]1 | 1.44%
c1ccc(C2C3=C(CCCC3)Nc3ncnn32)cc1 (stereo not drawn) | 12.9%
COc1ccc(Cc2nc3ccc(C(=O)N(C)C(C)c4ccon4)cc3o2)cc1 (stereo not drawn) | 3.42%
COc1ccc(-c2nc(-c3ccccc3)c(-c3cc([N+](=O)[O-])ccc3C)[nH]2)cc1OC | 12.6%
Cc1ccc(-n2ncc3c(=O)n(CC(=O)N4CCN(c5ccccc5)CC4)cnc32)cc1C | 2.17%
Cc1cc2nc(-c3cc(N4CCOCC4)ccc3[N+](=O)[O-])ccn2n1 | -3.97%

Structure (SMILES) | hERG current change (%, negative = inhibition) at 1uM
CCOC(=O)/C(C#N)=C1/C=CNC(=O)N1 | 7.31%
Cc1ccsc1C(=O)NNC(=O)COc1ccccc1Cl | 12.4%
CC(NC(=O)NC12CC3CC(CC(C3)C1)C2)C1CCCO1 (stereo not drawn) | 9.8%
CN(C)C(=O)N1CCC(C(=O)N2CCCC(C(=O)c3cccc4ccccc34)C2)CC1 (stereo not drawn) | 9.45%
O=C(O)CC/C(=N\Nc1ccccc1[N+](=O)[O-])c1cccs1 | 12.8%
O=C(Nc1nccs1)c1ccc(NC(=O)C2CC=CCC2C(=O)O)cc1 (stereo not drawn) | 5.58%
C=C(C)C1CC=C(C)/C(=N/NC(=O)CNc2ccc(C)cc2C)C1 (stereo not drawn) | 11.4%
C[C@@]12CCC3[C@@](CCC4[C@@]3(C)CCC[C@@]4(C)C(=O)Nc3ccc(Cl)cc3)(CC1=O)C2 (stereo partly drawn) | 4.89%
COc1ccc(NC(=O)c2cccc(N3C(=O)C4CCC(C)CC4C3=O)c2)c(OC)c1 (stereo not drawn) | 3.92%
Clc1ccc2oc(-c3ccccn3)nc2c1 | 14.7%
CCC(C)c1ccccc1N=Cc1ccc2c(c1)OCO2 (stereo not drawn) | 7.08%
Cc1ccc(N(C(=O)c2sc(C)nc2C)C(C(=O)NCc2ccco2)c2ccccc2)cc1 (stereo not drawn) | -0.8%
COc1ccccc1NC(=S)NC1CC2CCC1C2 (stereo not drawn) | 11.3%
CCc1sc(N2C(=O)C3C4CCC(C4=C(C)C)C3C2=O)nc1-c1ccccc1 (stereo not drawn) | 0.0275%
Cc1csc(=Nc2ccccc2)n1CCCN1CCCC1=O | 11.5%
C[C@@H]1CCC[C@@]2(O[C@H](CCO)C[C@@H](O)[C@@H]2O)O1 | 10.3%
Cc1csc(NC(=O)CN(C)S(=O)(=O)c2cccc3cccnc23)n1 | -5.55%
O=C1OC(/C(=C\Nc2ccccc2)[N+](=O)[O-])c2ccccc21 (stereo not drawn) | 10.6%
Cl.NC1=NCc2ccccc21 | 6.42%
CCN1CCN(C(=O)c2ccc(OC3CCN(CCc4ccccc4)CC3)cc2)[C@@H](C)C1=O | 13.3%
Cc1ccc(C(=O)Nc2ccc(NC(=O)c3cccs3)cc2)c(C)c1 | 12.3%
